The values that follow come from the RNAGym collection of RNA variant scans (doi:10.1073/pnas.2313332121).

Variants at the background level are over-represented here.

B1: TPR 5TU (parent)
chain: GGAUCUUCUCGAUCUAACAAAAAAGACAAAUCUGCCACAAAGCUUGAGAGCAUCUUCGGAUGCAGAGGCGGCAGCCUUCGGUGGCGCGAUAGCGCCAACGUUCUCAACUAUGACACGCAAAACGCGUGCUCCGUUGAAUGGAGUUUAUCAUG

In this data set the parent is B1. Kind of data set: polymerase ribozyme fitness, log enrichment relative to wild type (log ratio); higher = more active; in vitro selection for triplet polymerase activity. In short, it runs like this: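 Genotype fitness is the logarithm of its enrichment divided by wild-type enrichment, using inverse-variance-weighted averages of replicates. That logarithm is base 2. Enrichment was measured by Illumina sequencing of input and output libraries from one triplicate in vitro selection round, with frozen incubation at −7 °C, on PCR-built, transcribed mutant libraries of each subunit of a heterodimeric triplet polymerase ribozyme, retaining genotypes with ≥10 input reads and ≥1 read per output.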
Take C54U U135A G136C: the “polymerase ribozyme fitness (log ratio)” value was -3.76.

C54U U77C G94U C96U: the “polymerase ribozyme fitness (log ratio)” value was at most -4.2.

C54G C93A G94U U139C: the “polymerase ribozyme fitness (log ratio)” value is at most -4.2.

In the case of U55A A64U U82G C108U C114A G133A A137C, the “polymerase ribozyme fitness (log ratio)” value was at most -4.2.

Regarding U55A A66G A73U C76G G81A C96U, the “polymerase ribozyme fitness (log ratio)” value was at most -4.2.

With U56A C63U A64U G84A G128A, the “polymerase ribozyme fitness (log ratio)” value was at most -4.2.

As to U55A C85U, the “polymerase ribozyme fitness (log ratio)” value was -0.644.

Take U55A G65C G88U G112A U134A G140U: the “polymerase ribozyme fitness (log ratio)” value is at most -4.2.

Regarding C54G C95A C118G, the “polymerase ribozyme fitness (log ratio)” value was -2.03.

In the case of C54U C79U A115G A120G A122U G141U, the “polymerase ribozyme fitness (log ratio)” value is at most -4.2.

Regarding U55G A91C G141U G143A, the “polymerase ribozyme fitness (log ratio)” value was at most -4.2.

As for C54U A64U C76G C93U A120G C123A G141A U146A, the “polymerase ribozyme fitness (log ratio)” value is at most -4.2.

As for U55A A60U G65U G88C, the “polymerase ribozyme fitness (log ratio)” value is at most -4.2.

As for U55A C76G A91U A150U, the “polymerase ribozyme fitness (log ratio)” value is at most -4.2.

Take C54U G83A: the “polymerase ribozyme fitness (log ratio)” value is -0.655.

Take C54U G83U: the “polymerase ribozyme fitness (log ratio)” value is -0.319.

For U55A C69U G84A A89G G100A C118G, the “polymerase ribozyme fitness (log ratio)” value was at most -4.2.

U55A U77G U134C U139C: the “polymerase ribozyme fitness (log ratio)” value was at most -4.2.

Take U56A C76G U78C C96U A106G C123U A142C: the “polymerase ribozyme fitness (log ratio)” value is at most -4.2.

With C54G G140U, the “polymerase ribozyme fitness (log ratio)” value was -3.63.

For U55C C95U C103A, the “polymerase ribozyme fitness (log ratio)” value is -1.54.

As for U55A G65A G68A C123A U144G, the “polymerase ribozyme fitness (log ratio)” value is at most -4.2.

As for C54U U55A C85A C95A A98G A106U, the “polymerase ribozyme fitness (log ratio)” value is at most -4.2.

Turning to U55A C96G G143A, the “polymerase ribozyme fitness (log ratio)” value is -2.1.

On to U55A U102G U135C, for which the “polymerase ribozyme fitness (log ratio)” value is at most -4.2.

Regarding U55A G74A C75A C79G C103A, the “polymerase ribozyme fitness (log ratio)” value was at most -4.2.

Turning to U55G U61A G143C, the “polymerase ribozyme fitness (log ratio)” value was at most -4.2.

C54U G68U U82A G94A A97C G117A A138C G141A: the “polymerase ribozyme fitness (log ratio)” value was at most -4.2.

Consider U55A G92C C103G G128A G141U, for which the “polymerase ribozyme fitness (log ratio)” value is at most -4.2.

In the case of U56A C75U C95A C96G U104G G133U, the “polymerase ribozyme fitness (log ratio)” value is at most -4.2.

In the case of U55G G59C G86A C103U U146C, the “polymerase ribozyme fitness (log ratio)” value was -2.47.

U55A C87A U90C: the “polymerase ribozyme fitness (log ratio)” value was at most -4.2.

Turning to C54U G59A A106G A137U A138U, the “polymerase ribozyme fitness (log ratio)” value is at most -4.2.

As for U55G U61G G88U, the “polymerase ribozyme fitness (log ratio)” value was at most -4.2.

Regarding U55A C85G G88C A98U, the “polymerase ribozyme fitness (log ratio)” value is at most -4.2.

Regarding C54G G86U, the “polymerase ribozyme fitness (log ratio)” value is -3.24.

As for U55C G58C C85A G140C, the “polymerase ribozyme fitness (log ratio)” value is at most -4.2.

For U55A C76A G84U C116U A137U, the “polymerase ribozyme fitness (log ratio)” value is at most -4.2.

As for U55G U61G C69A C96U C131A, the “polymerase ribozyme fitness (log ratio)” value is at most -4.2.

Regarding C54U C69G C85G, the “polymerase ribozyme fitness (log ratio)” value is -3.9.

As for C54U A137C, the “polymerase ribozyme fitness (log ratio)” value was at most -4.2.

For U55A C57A G59C G74C A106U, the “polymerase ribozyme fitness (log ratio)” value is at most -4.2.

In the case of U55A C95U C131G U135C, the “polymerase ribozyme fitness (log ratio)” value is at most -4.2.

As for C54U C85U G88A A115G U135G G136A, the “polymerase ribozyme fitness (log ratio)” value is at most -4.2.

As to C54G U55G A64C A66C U78G G88U, the “polymerase ribozyme fitness (log ratio)” value was at most -4.2.

U55G G67A C93A A122G: the “polymerase ribozyme fitness (log ratio)” value is at most -4.2.

In the case of U56A A64U G86A C95U A113G C131G U139C A142C, the “polymerase ribozyme fitness (log ratio)” value is at most -4.2.

As for U55A U90C C95U A121U U146C, the “polymerase ribozyme fitness (log ratio)” value was at most -4.2.

On to U55G C75U A110G, for which the “polymerase ribozyme fitness (log ratio)” value is at most -4.2.

Turning to U55A C72A U139C, the “polymerase ribozyme fitness (log ratio)” value was at most -4.2.

As to U56A C79A U90C C96U A142U, the “polymerase ribozyme fitness (log ratio)” value was at most -4.2.

For C54G U111A C114U A150G, the “polymerase ribozyme fitness (log ratio)” value was at most -4.2.

Regarding C54U C93G C96A, the “polymerase ribozyme fitness (log ratio)” value was at most -4.2.

C54U C79A G83A C103G: the “polymerase ribozyme fitness (log ratio)” value was at most -4.2.

For U55G C69A A97U A119U G141A, the “polymerase ribozyme fitness (log ratio)” value is -1.39.

For the variant U55A A64G U135A, the “polymerase ribozyme fitness (log ratio)” value is at most -4.2.

Consider U55A C96G, for which the “polymerase ribozyme fitness (log ratio)” value is -1.04.

C54U C85G A91U: the “polymerase ribozyme fitness (log ratio)” value was at most -4.2.

Take U55A G126U A150C: the “polymerase ribozyme fitness (log ratio)” value was at most -4.2.

On to C54U C57U C87A G133A, for which the “polymerase ribozyme fitness (log ratio)” value is at most -4.2.

Take C54G G92C G141C C149G: the “polymerase ribozyme fitness (log ratio)” value was at most -4.2.

For the variant C54U C95U A98G A142U, the “polymerase ribozyme fitness (log ratio)” value was -1.61.

For the variant U55A G67A A91U C99U, the “polymerase ribozyme fitness (log ratio)” value is at most -4.2.

For the variant U55G C76A G84U A91G C95A C116G, the “polymerase ribozyme fitness (log ratio)” value was at most -4.2.

Turning to U55A U56G G80A, the “polymerase ribozyme fitness (log ratio)” value was -1.37.

As to C54U C95U C96U U146A A150C G152C, the “polymerase ribozyme fitness (log ratio)” value is at most -4.2.

U55A G126A: the “polymerase ribozyme fitness (log ratio)” value is -1.02.

For C54U G84U C129U A137G A147C U148A, the “polymerase ribozyme fitness (log ratio)” value is at most -4.2.

For the variant C54U G65U A73U A91U G141U, the “polymerase ribozyme fitness (log ratio)” value was at most -4.2.

Consider U55A U56A G70C U77G C85A G94A G126C U148A, for which the “polymerase ribozyme fitness (log ratio)” value was at most -4.2.

Consider U56A A64G C79A G88A G92A U145G A147G, for which the “polymerase ribozyme fitness (log ratio)” value is at most -4.2.

Turning to C54U C87G A91U C95U G100C G128C, the “polymerase ribozyme fitness (log ratio)” value was at most -4.2.

For the variant C54U C76G A91U U135G, the “polymerase ribozyme fitness (log ratio)” value was at most -4.2.

Regarding C54U A60C A89C C116U C125U A142C, the “polymerase ribozyme fitness (log ratio)” value was at most -4.2.

As to C54G G84A C87U A122C U127C A142U, the “polymerase ribozyme fitness (log ratio)” value is at most -4.2.

As to C54U C72A A73C A91C, the “polymerase ribozyme fitness (log ratio)” value is at most -4.2.

In the case of U56A C76G C93U, the “polymerase ribozyme fitness (log ratio)” value was at most -4.2.

Take U55A C95U: the “polymerase ribozyme fitness (log ratio)” value was -0.137.

On to C54U U82C G92C C93G C131A, for which the “polymerase ribozyme fitness (log ratio)” value was at most -4.2.

Take C54U C85G C95U: the “polymerase ribozyme fitness (log ratio)” value was at most -4.2.

Turning to U55G G70A C76A U82A G92C, the “polymerase ribozyme fitness (log ratio)” value was at most -4.2.

Take C54U G59A A60U C95U G128U U130G: the “polymerase ribozyme fitness (log ratio)” value is at most -4.2.

Turning to U55A A60U G84U C116G A119U G140C, the “polymerase ribozyme fitness (log ratio)” value is at most -4.2.
